# The list shows a part of the results.
# Target: no compound (DMSO)
# Experiment: log2 fold change of degron read counts, EGFP-low vs EGFP+ sorted cells; higher = lower degron-EGFP level without compound (poor expression or instability)
# Conditions: compound: DMSO control; 18 h
# 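Further: jurkat cells carrying a lentiviral library of mutant zinc finger degrons fused to EGFP plus mCherry, mCherry+ cells FACS sorted, degron abundance counted by next-generation sequencing.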
row,Sequence,log2 fold change of degron read counts
1,LTCEICGFRCTQKGNLLRHIKL,-0.245
2,FRCPVCGAEFTQKGNLLRHIKL,-0.985
3,FWCEICGHMFTQKGNLLRHIKL,0.143
4,LLCPICGFSCTQKGNLLRHIKL,0.462
5,FICNVCGANFTQKGNLLRHIKL,-0.575
6,FQCPICGRPFTQKGNLLRHIKL,-0.121
7,FTCNICGAAFTQKGNLLRHIKL,-0.272
8,LSCNQCGFGCTQKGNLLRHIKL,0.816
9,FTCDICGAPFTQKGNLLRHIKL,-0.696
10,FGCDVCGARFTQKGNLLRHIKL,-1.7
11,FLCSVCGHNFTQKGNLLRHIKL,-0.358
12,FKCNQCGAFFTQKGNLLRHIKL,0.113
13,FACPICGRGFTQKGNLLRHIKL,-0.0959
14,FFCEICGRLFTQKGNLLRHIKL,0.405

# Reference: the supplement of paper PMC12645437, “Orthogonal IMiD-Degron Pairs Induce Selective Protein Degradation in Cells” (ACS Chemical Biology, 2025)
